Measured values reported in the supplement of paper PMC10126150.
Values marked as one replicate rest on one cluster of the flow cell; about a third of the high ones do not repeat.

Test system: ATP
Test: switch fluorescence ratio, 500 uM ATP over buffer (Cy3 cluster intensity, sum of 5 cycles each) (fold (ratio)); higher = stronger signal-on switching upon ATP binding; sequences stand for … in TCGTCGGCAGCGTCAGATGTGTATAAGAGACAGTTTTTTTTTTTTTTTTTTTTTTTTT…TC
Details: aptamer strand: ATP DNA aptamer (quencher-CACCTGGGGGAGTATTGCGGAGGAAGG + anchor), 100 nM annealed; ATP concentration: 500 uM; one replicate
Outline: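 After annealing to 100 nM quencher-labelled ATP aptamer, Cy3-labelled switching-strand clusters on a modified Illumina MiSeq flow-cell were imaged in selection buffer. A second image followed after 15 min with 500 uM ATP at 22 °C, and five such buffer/ATP cycles were done, each separated by NaOH stripping and re-annealing. The fluorescence ratio, averaged per switch-domain sequence, is summed target-cycle over summed buffer-cycle Cy3 intensity per cluster, with clusters outside 100-1000 RFU excluded.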
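Further: ATP exposure 15 min at 22 °C before imaging.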

| Sequence | switch fluorescence ratio |
| --- | --- |
| ACTAAGCGAT | 1.64 |
| TTTGCGCATA | 1.07 |
| GCTGACTATC | 0.984 |
| GCGTAAACTG | 1.05 |
| TAGAACGCA | 1.12 |
| AACAGCAC | 1.32 |
| ACCAAGCATG | 1.01 |
| CAAACAGTTG | 0.974 |
| CAGTGAAAAT | 1.01 |
| GTTGCTGCAG | 0.991 |
| AGGAACCCCC | 1.05 |
| CCTTCAAGGA | 1 |
| AACTAATTG | 0.971 |
| TCGGTAAGTC | 0.98 |
| CGACTGGTTG | 0.991 |
| GATGTAGAAT | 0.996 |
| CGGGCATATC | 2.28 |
| AGGCGGCTGG | 1.03 |
| TAGTTAAAAT | 1.02 |
| GGGGATCAAG | 1.02 |
| CTATATTATA | 1 |
| TAGGGCCAGG | 1.09 |
| AAATGGTCAG | 0.97 |

| Sequence | switch fluorescence ratio |
| --- | --- |
| CCTAAAATTC | 1.13 |
| ATCTCCTTGT | 0.952 |
| GAAAATATTA | 0.999 |
| AATATCACGA | 1.1 |
| TAGCTAGCCG | 0.977 |
| ATTGATCCC | 0.988 |
| CATACGATTG | 0.996 |
| TGGTCCGACA | 1.05 |
| ACTCTGGCTG | 1.05 |
| CAAAGGTGTG | 1.01 |
| AGCAGGCGAC | 1.14 |
| CCAGGGAGTT | 1.09 |
| AAACAAAGTT | 1.01 |
| ACTAGATTTT | 1.02 |
| TGCGCTGCCT | 0.966 |
| CTTCATGACC | 1.05 |
| ATCGCCCCGT | 1.02 |
| TCTGGGAGTT | 1.01 |
| ATGATATGAT | 0.998 |
| CGAATTCGGT | 1.02 |
| GCAGTATAAC | 1.08 |
| GCCCCTGGCA | 1.03 |
| TCGGATAAGG | 0.979 |

| Sequence | switch fluorescence ratio |
| --- | --- |
| GAACCGATAT | 1.03 |
| TGCGGGATGC | 1.13 |
| CTTTTTGGTG | 1.01 |
| AGCTTGAATA | 0.941 |
| AACTTTTTCT | 1.08 |
| TTTACTGACT | 1.05 |
| TAAACGAAGA | 1.05 |
| ATTAATTGAT | 1.02 |
| TAGAACGGGA | 0.968 |
| ACCTCTTTTG | 1.03 |
| CACCATGGGG | 1.03 |
| AGTACTAATG | 1 |
| CTAGAAGTCT | 1.02 |
| CATGCTGACG | 1.01 |
| TTTTCAGTGA | 0.961 |
| GGTGGACTGC | 1.03 |
| GGTGTATTTT | 0.986 |
| ACAGTTTACA | 1.11 |
| GGTGCGAATT | 1 |
| TCATGAGAAA | 1.03 |
| TAAGGCAAAG | 1.06 |
| CCGTGCGAGA | 1.36 |
| CTCACATGTG | 1.04 |

| Sequence | switch fluorescence ratio |
| --- | --- |
| CATGAACGGA | 1 |
| GCATTGTGCT | 0.995 |
| GCCATTGGTG | 1.15 |
| ATGGTCTAAA | 1.03 |
| TTTATTATAC | 1.07 |
| GGTTCCATGG | 1.04 |
| ACTCTTCTGT | 1.01 |
| TATGTCACCG | 1.02 |
| ATTCTCCAGG | 2.17 |
| GGATCTCAT | 0.954 |
| AGAGCGATTG | 1.02 |
| GATCTGGAGT | 1.01 |
| ATAAGAATAT | 1.02 |
| TTTGATAGAC | 0.964 |
| TCAGAATACG | 1.04 |
| GGGGTCAATT | 1.01 |
| CCTTCACTTT | 1.37 |
| CAAATTTGTG | 1.02 |
| GCAAAGGATA | 1.03 |
| CGGGGTCAGA | 0.972 |
| GGGTGACGAA | 0.986 |
| TCTAAGTCTG | 1.03 |
| AAGTCCCAGA | 1.01 |

| Sequence | switch fluorescence ratio |
| --- | --- |
| GATAAGAAGT | 1.03 |
| ATTCAACGTG | 0.98 |
| TCAGTAATG | 0.994 |
| GGGGGTTTCA | 1.05 |
| TTGGACGCGG | 1.04 |
| ATCTTCCTTG | 1.27 |
| GCGACACCC | 1.22 |
| GTACAAGCC | 0.987 |
| ATCTGAGATA | 0.971 |
| GTTTTCTGAC | 0.991 |
| TGCCTTGGAT | 1.03 |
| GGCATTTACT | 1.09 |
| CTGCTTGGTC | 1.01 |
| GCCGACCTGG | 1.03 |
| ATTCGGCTCT | 1.01 |
| ATTTCGGGT | 1 |
| TTGTACACGG | 0.993 |
| GTATAGATTA | 1.03 |
| TTCGGAACGT | 1 |
| AAATGCTCCC | 1.19 |
| CGGGGCCGAT | 1.02 |
| GCATCAGATC | 0.99 |
| CCGGTAACTA | 1.03 |

| Sequence | switch fluorescence ratio |
| --- | --- |
| CACAAAGATT | 1.03 |
| GTTTCACGCA | 1.11 |
| TAAGTGAGAC | 1.11 |
| CATTTATCTG | 0.989 |
| CAGTTAGCGC | 1.04 |
| AAGTCCCGAC | 1.04 |
| AGTCTTGTGT | 0.998 |
| CTAGTACCGT | 1.01 |
| TCTAAACGTG | 0.92 |
| GATAATGTTG | 0.968 |
| CCGGATGGGA | 3.88 |
| CAAGGGTCAG | 1.04 |
| TGGGGCTATC | 0.985 |
| GGTGCTAAAA | 1 |
| ATGAAGGTAG | 0.993 |
| ATCAGGGCTT | 0.975 |
| TTCCTTTTGG | 0.975 |
| TCAGAAGCCT | 1.21 |
| GTTTTACTAT | 0.963 |
| GTGAATCTA | 0.988 |
| CAAGACTCTC | 1.15 |
| CATTTTTCT | 0.963 |
| ACAGAATGCG | 1.07 |

| Sequence | switch fluorescence ratio |
| --- | --- |
| TCAATGTCAT | 0.993 |
| ATCATATAAT | 0.991 |
| ACCGGCAGCG | 1.1 |
| ATGGAGCG | 1.02 |
| AACTGATTTA | 0.993 |
| TTGAGATTCA | 0.988 |
| GGCAACGTGC | 1 |
| ATCGTTCAAG | 0.995 |
| ATTTCGGGGC | 0.963 |
| TTGCGTCGGT | 1.03 |
| GCTTTATTGG | 1.01 |
| AATGCTGCCG | 0.982 |
| GTTATTCGGG | 0.972 |
| CAGTCTGCCT | 0.999 |
| CCGCCGCGCG | 2.58 |
| TCATTCGAC | 1.02 |
| TGGGCCTCGC | 1 |
| AGCGCGCATA | 1.06 |
| TGTTTATCTG | 0.989 |
